{
  "source": "the supplement of paper PMC8728848",
  "test_in_all_cases": "glycan array binding signal (z-score within array); higher = stronger binding",
  "settings_in_all_cases": "glycan notation: IUPAC condensed, linker removed",
  "key": {"Fuc(a1-2)Gal": {"molecular_target": "Fuc(a1-2)Gal", "in_short": "(§1)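 The Consortium for Functional Glycomics database supplied 3228 glycan arrays, of which those lacking an available protein sequence were dropped. The binding signal, a within-array Z-score, was averaged across arrays of the same protein sequence and across linkers. Negative scores can be read as non-binding.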"}, "Fuc(a1-2)Gal(b1-3)GalNAc": {"molecular_target": "Fuc(a1-2)Gal(b1-3)GalNAc", "in_short": "as §1"}, "[1]": {"molecular_target": "Fuc(a1-2)Gal(b1-3)GalNAc(a1-3)[Fuc(a1-2)]Gal(b1-4)Glc", "in_short": "as §1"}, "[2]": {"molecular_target": "Fuc(a1-2)Gal(b1-3)GalNAc(a1-3)[Fuc(a1-2)]Gal(b1-4)GlcNAc", "in_short": "as §1"}, "[3]": {"molecular_target": "Fuc(a1-2)Gal(b1-3)GalNAc(b1-3)Gal", "in_short": "as §1"}, "[4]": {"molecular_target": "Fuc(a1-2)Gal(b1-3)GalNAc(b1-3)Gal(a1-4)Gal(b1-4)Glc", "in_short": "as §1"}, "[5]": {"molecular_target": "Fuc(a1-2)Gal(b1-3)GalNAc(b1-4)[Neu5Ac(a2-3)]Gal(b1-4)Glc", "in_short": "as §1"}, "Fuc(a1-2)Gal(b1-3)GlcNAc": {"molecular_target": "Fuc(a1-2)Gal(b1-3)GlcNAc", "in_short": "as §1"}, "[6]": {"molecular_target": "Fuc(a1-2)Gal(b1-3)GlcNAc(b1-2)Man(a1-3)[Fuc(a1-2)Gal(b1-3)GlcNAc(b1-2)Man(a1-6)]Man(b1-4)GlcNAc(b1-4)GlcNAc", "in_short": "as §1"}, "[7]": {"molecular_target": "Fuc(a1-2)Gal(b1-3)GlcNAc(b1-2)Man(a1-3)[Fuc(a1-2)Gal(b1-3)GlcNAc(b1-2)Man(a1-6)]Man(b1-4)GlcNAc(b1-4)[Fuc(a1-6)]GlcNAc", "in_short": "as §1"}, "[8]": {"molecular_target": "Fuc(a1-2)Gal(b1-3)GlcNAc(b1-3)Gal(b1-4)Glc", "in_short": "as §1"}, "[9]": {"molecular_target": "Fuc(a1-2)Gal(b1-3)GlcNAc(b1-3)GalNAc", "in_short": "as §1"}, "[10]": {"molecular_target": "Fuc(a1-2)Gal(b1-3)GlcNAc(b1-3)[Fuc(a1-2)Gal(b1-3)GlcNAc(b1-6)]GalNAc", "in_short": "as §1"}, "[11]": {"molecular_target": "Fuc(a1-2)Gal(b1-3)GlcNAc(b1-3)[Fuc(a1-3)[Gal(b1-4)]GlcNAc(b1-6)]Gal(b1-4)Glc", "in_short": "as §1"}, "[12]": {"molecular_target": "Fuc(a1-2)Gal(b1-3)GlcNAc(b1-3)[Gal(b1-4)GlcNAc(b1-6)]Gal(b1-4)Glc", "in_short": "as §1"}, "[13]": {"molecular_target": "Fuc(a1-2)Gal(b1-3)GlcNAc(b1-3)[Neu5Ac(a2-6)Gal(b1-4)GlcNAc(b1-6)]Gal(b1-4)Glc", "in_short": "as §1"}, "[14]": {"molecular_target": "Fuc(a1-2)Gal(b1-3)GlcNAc6S", "in_short": "as §1"}, "[15]": {"molecular_target": "Fuc(a1-2)Gal(b1-3)[Fuc(a1-4)]GlcNAc", "in_short": "as §1"}, "[16]": {"molecular_target": "Fuc(a1-2)Gal(b1-3)[Fuc(a1-4)]GlcNAc(b1-2)Man(a1-3)[Fuc(a1-2)Gal(b1-3)[Fuc(a1-4)]GlcNAc(b1-2)Man(a1-6)]Man(b1-4)GlcNAc(b1-4)GlcNAc", "in_short": "as §1"}, "[17]": {"molecular_target": "Fuc(a1-2)Gal(b1-3)[Fuc(a1-4)]GlcNAc(b1-2)Man(a1-6)[Fuc(a1-2)Gal(b1-3)[Fuc(a1-4)]GlcNAc(b1-2)Man(a1-3)]Man(b1-4)GlcNAc(b1-4)[Fuc(a1-6)]GlcNAc", "in_short": "as §1"}, "[18]": {"molecular_target": "Fuc(a1-2)Gal(b1-3)[Fuc(a1-4)]GlcNAc(b1-3)[Fuc(a1-3)[Gal(b1-4)]GlcNAc(b1-6)]Gal(b1-4)Glc", "in_short": "as §1"}, "[19]": {"molecular_target": "Fuc(a1-2)Gal(b1-3)[Fuc(a1-4)]GlcNAc(b1-3)[Gal(b1-4)GlcNAc(b1-6)]Gal(b1-4)Glc", "in_short": "as §1"}, "Fuc(a1-2)Gal(b1-4)Glc": {"molecular_target": "Fuc(a1-2)Gal(b1-4)Glc", "in_short": "as §1"}, "Fuc(a1-2)Gal(b1-4)Glc6S": {"molecular_target": "Fuc(a1-2)Gal(b1-4)Glc6S", "in_short": "as §1"}, "Fuc(a1-2)Gal(b1-4)GlcNAc": {"molecular_target": "Fuc(a1-2)Gal(b1-4)GlcNAc", "in_short": "as §1"}, "[20]": {"molecular_target": "Fuc(a1-2)Gal(b1-4)GlcNAc(b1-2)Man", "in_short": "as §1"}, "[21]": {"molecular_target": "Fuc(a1-2)Gal(b1-4)GlcNAc(b1-2)Man(a1-3)[Fuc(a1-2)Gal(b1-4)GlcNAc(b1-2)Man(a1-6)]Man(b1-4)GlcNAc(b1-4)GlcNAc", "in_short": "as §1"}, "[22]": {"molecular_target": "Fuc(a1-2)Gal(b1-4)GlcNAc(b1-2)Man(a1-3)[Fuc(a1-2)Gal(b1-4)GlcNAc(b1-2)Man(a1-6)]Man(b1-4)GlcNAc(b1-4)[Fuc(a1-6)]GlcNAc", "in_short": "as §1"}, "[23]": {"molecular_target": "Fuc(a1-2)Gal(b1-4)GlcNAc(b1-2)[Fuc(a1-2)Gal(b1-4)GlcNAc(b1-4)]Man(a1-3)[Fuc(a1-2)Gal(b1-4)GlcNAc(b1-2)Man(a1-6)]Man(b1-4)GlcNAc(b1-4)GlcNAc", "in_short": "as §1"}, "[24]": {"molecular_target": "Fuc(a1-2)Gal(b1-4)GlcNAc(b1-3)Gal(b1-4)GlcNAc", "in_short": "as §1"}},
  "note": "Some of the results follow.",
  "data": [
    {"binder": "Gal 8 (Homo sapiens), O00214_1 (protein) MMLSLNNLQNIIYNPVIPFVGTIPDQLDPGTLIVIRGHVPSDADRFQVDLQNGSSMKPRADVAFHFNPRFKRAGCIVCNTLINEKWGREEITYDTPFKREKSFEIVIMVLKDKFQVAVNGKHTLLYGHRIGPEKIDTLGIYGKVNIHSIGFSFSSDLQSTQASSLELTEISRENVPKSGTPQLRLPFAARLNTPMGPGRTVVVKGEVNANAKSFNVDLLAGKSKDIALHLNPRLNIKAFVRNSFLQESWGEEERNITSFPFSPGMYFEMIIYCDVREFKVAVNGVHSLEYKHRFKELSSIDTLEINGDIHLLEVRSW", "values": [
      {"measurement": "glycan array binding signal (z-score)", "setting": "Fuc(a1-2)Gal", "value": -0.233},
      {"measurement": "glycan array binding signal (z-score)", "setting": "Fuc(a1-2)Gal(b1-3)GalNAc", "value": -0.23},
      {"measurement": "glycan array binding signal (z-score)", "setting": "[1]", "value": 1.91},
      {"measurement": "glycan array binding signal (z-score)", "setting": "[2]", "value": 1.53},
      {"measurement": "glycan array binding signal (z-score)", "setting": "[3]", "value": -0.194},
      {"measurement": "glycan array binding signal (z-score)", "setting": "[4]", "value": -0.241},
      {"measurement": "glycan array binding signal (z-score)", "setting": "[5]", "value": -0.227},
      {"measurement": "glycan array binding signal (z-score)", "setting": "Fuc(a1-2)Gal(b1-3)GlcNAc", "value": 0.18},
      {"measurement": "glycan array binding signal (z-score)", "setting": "[6]", "value": 0.466},
      {"measurement": "glycan array binding signal (z-score)", "setting": "[7]", "value": -0.127},
      {"measurement": "glycan array binding signal (z-score)", "setting": "[8]", "value": 0.434},
      {"measurement": "glycan array binding signal (z-score)", "setting": "[9]", "value": -0.254},
      {"measurement": "glycan array binding signal (z-score)", "setting": "[10]", "value": -0.102},
      {"measurement": "glycan array binding signal (z-score)", "setting": "[11]", "value": 0.221},
      {"measurement": "glycan array binding signal (z-score)", "setting": "[12]", "value": 0.626},
      {"measurement": "glycan array binding signal (z-score)", "setting": "[13]", "value": 0.368},
      {"measurement": "glycan array binding signal (z-score)", "setting": "[14]", "value": 1.04},
      {"measurement": "glycan array binding signal (z-score)", "setting": "[15]", "value": -0.224},
      {"measurement": "glycan array binding signal (z-score)", "setting": "[16]", "value": 0.079},
      {"measurement": "glycan array binding signal (z-score)", "setting": "[17]", "value": -0.138},
      {"measurement": "glycan array binding signal (z-score)", "setting": "[18]", "value": -0.249},
      {"measurement": "glycan array binding signal (z-score)", "setting": "[19]", "value": -0.224},
      {"measurement": "glycan array binding signal (z-score)", "setting": "Fuc(a1-2)Gal(b1-4)Glc", "value": -0.139},
      {"measurement": "glycan array binding signal (z-score)", "setting": "Fuc(a1-2)Gal(b1-4)Glc6S", "value": -0.083},
      {"measurement": "glycan array binding signal (z-score)", "setting": "Fuc(a1-2)Gal(b1-4)GlcNAc", "value": -0.207},
      {"measurement": "glycan array binding signal (z-score)", "setting": "[20]", "value": -0.266},
      {"measurement": "glycan array binding signal (z-score)", "setting": "[21]", "value": 0.822},
      {"measurement": "glycan array binding signal (z-score)", "setting": "[22]", "value": -0.152},
      {"measurement": "glycan array binding signal (z-score)", "setting": "[23]", "value": -1.24},
      {"measurement": "glycan array binding signal (z-score)", "setting": "[24]", "value": 0.433}
    ]}
  ]
}
